Data published in PMC3584282.
These are yes or no findings as the source states them, for the method shown. For some assays here: In cells and extracts the contact can be indirect. Some results given as binding are weak or reduced against the parent protein; the word gives no strength. For some assays here: Sequences can lack the tags named with a protein. Values belong to the binder of their own block, whether it stands above or below them.

Key:
[1] = biological target: GST-Arl8b-Q75L (UniProt Q9NVJ2); test: pull-down; lysates of HeLa cells transfected with HA-VPS41 passed over glutathione beads bound to GST or GST-Arl8b (WT, Q75L, T34N); eluates on SDS-PAGE, immunoblotted anti-HA; only the target purified
[2] = biological target: GST-Arl8b (glutathione-S-transferase-tagged Arl8b) (UniProt Q9NVJ2); test: as above
[3] = biological target: GST-Arl8b-T34N (UniProt Q9NVJ2); test: as above
[4] = biological target: Arl8b in the DNA-binding domain vector (yeast two-hybrid) (UniProt Q9NVJ2); test: two-hybrid; yeast two-hybrid (Matchmaker, Clonetech); baits in the DNA-binding domain vector, preys in the activation domain vector; growth on selective medium (-His)
[5] = biological target: dominant-active Arl8b Q75L in the DNA-binding domain vector (yeast two-hybrid) (UniProt Q9NVJ2); test: as above
[6] = biological target: Histadine-tagged Arl8b (His-Arl8b) (UniProt Q9NVJ2); test: pull-down; two-protein system: purified His-Arl8b immobilised on cobalt resin, exposed to purified GST, GST-VPS41 or GST-RILP; eluates on SDS-PAGE, blotted anti-GST; both purified
[7] = biological target: T1, Arl8b in the DNA-binding domain vector (yeast two-hybrid), Q9NVJ2; test: two-hybrid; yeast two-hybrid (Matchmaker, Clonetech); baits in the DNA-binding domain vector, preys in the activation domain vector; growth on selective medium (-His); details: remark: other sources report otherwise
T1 chain: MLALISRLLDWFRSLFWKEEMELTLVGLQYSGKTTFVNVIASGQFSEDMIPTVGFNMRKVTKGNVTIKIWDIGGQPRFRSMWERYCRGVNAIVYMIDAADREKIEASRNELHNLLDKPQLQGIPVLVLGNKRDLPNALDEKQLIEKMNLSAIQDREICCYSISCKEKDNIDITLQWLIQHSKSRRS

B1: HA-VPS41 (hemagglutinin-tagged VPS41) (protein, UniProt P49754 1-854)
chain: MAEAEEQETGSLEESTDESEEEESEEEPKLKYERLSNGVTEILQKDAASCMTVHDKFLALGTHYGKVYLLDVQGNITQKFDVSPVKINQISLDESGEHMGVCSEDGKVQVFGLYSGEEFHETFDCPIKIIAVHPHFVRSSCKQFVTGGKKLLLFERSWMNRWKSAVLHEGEGNIRSVKWRGHLIAWANNMGVKIFDIISKQRITNVPRDDISLRPDMYPCSLCWKDNVTLIIGWGTSVKVCSVKERHASEMRDLPSRYVEIVSQFETEFYISGLAPLCDQLVVLSYVKEISEKTEREYCARPRLDIIQPLSETCEEISSDALTVRGFQENECRDYHLEYSEGESLFYIVSPRDVVVAKERDQDDHIDWLLEKKKYEEALMAAEISQKNIKRHKILDIGLAYINHLVERGDYDIAARKCQKILGKNAALWEYEVYKFKEIGQLKAISPYLPRGDPVLKPLIYEMILHEFLESDYEGFATLIREWPGDLYNNSVIVQAVRDHLKKDSQNKTLLKTLAELYTYDKNYGNALEIYLTLRHKDVFQLIHKHNLFSSIKDKIVLLMDFDSEKAVDMLLDNEDKISIKKVVEELEDRPELQHVYLHKLFKRDHHKGQRYHEKQISLYAEYDRPNLLPFLRDSTHCPLEKALEICQQRNFVEETVYLLSRMGNSRSALKMIMEELHDVDKAIEFAKEQDDGELWEDLILYSIDKPPFITGLLNNIGTHVDPILLIHRIKEGMEIPNLRDSLVKILQDYNLQILLREGCKKILVADSLSLLKKMHRTQMKGVLVDEENICESCLSPILPSDAAKPFSVVVFHCRHMFHKECLPMPSMNSAAQFCNICSAKNRGPGSAILEMKK
- binding [1]: binds
- binding [2]: binds
- binding [3]: no binding

B3: GST-tagged VPS41 (GST-VPS41) (protein, UniProt P49754 1-854)
chain: B1 chain
- binding [6]: binds

Continued, values first:

- binding [4]: binds
- binding [5]: binds
B2: VPS41 in the activation domain vector (yeast two-hybrid) (protein, UniProt P49754 1-854)
chain: B1 chain

- binding [7]: no binding
B4: VPS18 in the activation domain vector (yeast two-hybrid), Q9P253 1-973 (protein)
chain: MASILDEYENSLSRSAVLQPGCPSVGIPHSGYVNAQLEKEVPIFTKQRIDFTPSERITSLVVSSNQLCMSLGKDTLLRIDLGKANEPNHVELGRKDDAKVHKMFLDHTGSHLLIALSSTEVLYVNRNGQKVRPLARWKGQLVESVGWNKALGTESSTGPILVGTAQGHIFEAELSASEGGLFGPAPDLYFRPLYVLNEEGGPAPVCSLEAERGPDGRSFVIATTRQRLFQFIGRAAEGAEAQGFSGLFAAYTDHPPPFREFPSNLGYSELAFYTPKLRSAPRAFAWMMGDGVLYGALDCGRPDSLLSEERVWEYPEGVGPGASPPLAIVLTQFHFLLLLADRVEAVCTLTGQVVLRDHFLEKFGPLKHMVKDSSTGQLWAYTERAVFRYHVQREARDVWRTYLDMNRFDLAKEYCRERPDCLDTVLAREADFCFRQRRYLESARCYALTQSYFEEIALKFLEARQEEALAEFLQRKLASLKPAERTQATLLTTWLTELYLSRLGALQGDPEALTLYRETKECFRTFLSSPRHKEWLFASRASIHELLASHGDTEHMVYFAVIMQDYERVVAYHCQHEAYEEALAVLARHRDPQLFYKFSPILIRHIPRQLVDAWIEMGSRLDARQLIPALVNYSQGGEVQQVSQAIRYMEFCVNVLGETEQAIHNYLLSLYARGRPDSLLAYLEQAGASPHRVHYDLKYALRLCAEHGHHRACVHVYKVLELYEEAVDLALQVDVDLAKQCADLPEEDEELRKKLWLKIARHVVQEEEDVQTAMACLASCPLLKIEDVLPFFPDFVTIDHFKEAICSSLKAYNHHIQELQREMEEATASAQRIRRDLQELRGRYGTVEPQDKCATCDFPLLNRPFYLFLCGHMFHADCLLQAVRPGLPAYKQARLEELQRKLGAAPPPAKGSARAKEAEGGAATAGPSREQLKADLDELVAAECVYCGELMIRSIDRPFIDPQRYEEEQLSWL

- binding [4]: no binding
B5: VPS39 in the activation domain vector (yeast two-hybrid) (protein, UniProt Q96JC1 1-886)
chain: MHDAFEPVPILEKLPLQIDCLAAWEEWLLVGTKQGHLLLYRIRKDVVPADVASPESGSCNRFEVTLEKSNKNFSKKIQQIHVVSQFKILVSLLENNIYVHDLLTFQQITTVSKAKGASLFTCDLQHTETGEEVLRMCVAVKKKLQLYFWKDREFHELQGDFSVPDVPKSMAWCENSICVGFKRDYYLIRVDGKGSIKELFPTGKQLEPLVAPLADGKVAVGQDDLTVVLNEEGICTQKCALNWTDIPVAMEHQPPYIIAVLPRYVEIRTFEPRLLVQSIELQRPRFITSGGSNIIYVASNHFVWRLIPVPMATQIQQLLQDKQFELALQLAEMKDDSDSEKQQQIHHIKNLYAFNLFCQKRFDESMQVFAKLGTDPTHVMGLYPDLLPTDYRKQLQYPNPLPVLSGAELEKAHLALIDYLTQKRSQLVKKLNDSDHQSSTSPLMEGTPTIKSKKKLLQIIDTTLLKCYLHTNVALVAPLLRLENNHCHIEESEHVLKKAHKYSELIILYEKKGLHEKALQVLVDQSKKANSPLKGHERTVQYLQHLGTENLHLIFSYSVWVLRDFPEDGLKIFTEDLPEVESLPRDRVLGFLIENFKGLAIPYLEHIIHVWEETGSRFHNCLIQLYCEKVQGLMKEYLLSFPAGKTPVPAGEEEGELGEYRQKLLMFLEISSYYDPGRLICDFPFDGLLEERALLLGRMGKHEQALFIYVHILKDTRMAEEYCHKHYDRNKDGNKDVYLSLLRMYLSPPSIHCLGPIKLELLEPKANLQAALQVLELHHSKLDTTKALNLLPANTQINDIRIFLEKVLEENAQKKRFNQVLKNLLHAEFLRVQEERILHQQVKCIITEEKVCMVCKKKIGNSAFARYPNGVVVHYFCSKEVNPADT
